From the supplement of paper PMC4967469 come the findings set out here.

A lower IC50 marks a more sensitive line; fits outside the tested doses are given as limits. For AUC the same curve is integrated over the 256-fold range of doses and scaled to a fraction; values near 1 show little effect. For part of these data: An inferred top dose comes from the curve model; the source does not state it. For part of these data: Drugs with an entry number were screened twice under separate entries, and the two screens often disagree. Some results are limits rather than exact numbers.

Holding throughout (experiment): Viability of human cancer cell lines after 72 h of drug (GDSC screen)
Compound in one test: Nc1ccc(C(=O)Nc2cccc(-c3nc(N4CCOCC4)c4oc5ncccc5c4n3)c2)cn1 [YM201636]
The following applies: top dose 5.12 µM; top dose inferred. The procedure:
(§1)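 Human cancer cell lines in 384-well plates, medium with 10% serum, drug for 72 h over a 256-fold dose range (nine 2-fold or five 4-fold steps up to the top dose). Adherent lines were fixed and stained with the nucleic acid dye Syto60, suspension lines read with resazurin; signal relative to control wells, capped at 0 and 100%. One two-parameter sigmoid per drug and line, fitted in a mixed model over all curves with the slope shared within a line.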

Compound in another test: Cn1cnc2c(F)c(Nc3ccc(Br)cc3Cl)c(C(=O)NOCCO)cc21 [AZD6244]
The conditions noted are these: top dose 4 µM; screen: GDSC drug entry 1498; top dose inferred. How it is done:
as §1

Compound in the next test: NC(=O)C1CCCc2c1[nH]c1ccc(Cl)cc21 [EX-527]
The conditions noted are these: top dose 20 µM. How it is done: as §1

Compound in the next test: N#CC(c1ccnc(NCCc2cccnc2)n1)c1nc2ccccc2s1 [AS601245]
The conditions noted are these: top dose 8 µM; top dose inferred. The procedure: as §1

The IC50 is the concentration at which inhibition is half-maximal. For 22RV1 (prostate, adherent), the AUC with YM201636 stood at 0.814; with AZD6244 it was 0.963; in the test with EX-527, 0.982; with AS601245, 0.916. Moreover, the IC50 in the test with YM201636 was 3.69 µM; in the test with AZD6244 it was greater than 4 µM; with EX-527, greater than 20 µM; with AS601245 it was greater than 8 µM.

Regarding 42-MG-BA (glioma, adherent), the AUC with YM201636 worked out at 0.934; in the test with AZD6244, 0.93; with EX-527, 0.985; in the test with AS601245 it was 0.893. Besides, the IC50 in the test with YM201636 was greater than 5.12 µM; with AZD6244 it was greater than 4 µM; in the test with EX-527 it was greater than 20 µM; with AS601245, greater than 8 µM.

201T (lung adenocarcinoma, adherent): the values for the AUC in the test with YM201636, with EX-527 and in the test with AS601245 were 0.816, 0.982 and 0.676, respectively. In addition, the IC50 is 3.82 µM in the test with YM201636, greater than 20 µM with EX-527 and 1.77 µM with AS601245.

For 451Lu (melanoma, adherent), the AUC with YM201636 is 0.948; with AZD6244, 0.355; in the test with EX-527, 0.986; in the test with AS601245 it was 0.831. The IC50 with YM201636 is greater than 5.12 µM; with AZD6244, 0.101 µM; with EX-527 it was greater than 20 µM; with AS601245 it was 4.76 µM.

As for A2058 (melanoma, adherent), the AUC turned out to be 0.98 with YM201636, 0.985 in the test with EX-527 and 0.814 with AS601245. The 50% inhibitory concentration (IC50) is greater than 5.12 µM with YM201636, greater than 20 µM with EX-527 and 3.79 µM with AS601245.

Turning to AGS (stomach, adherent), the AUC with YM201636 was 0.917; with EX-527, 0.988; in the test with AS601245 it was 0.895. Also, the IC50 in the test with YM201636 was greater than 5.12 µM; with EX-527, greater than 20 µM; in the test with AS601245, 7.97 µM.

Regarding AU565 (breast, adherent), the AUC stood at 0.814 in the test with YM201636, 0.984 in the test with EX-527 and 0.715 with AS601245. Moreover, the concentration for half-maximal inhibition (IC50) in the test with YM201636 is 3.19 µM; with EX-527, greater than 20 µM; in the test with AS601245, 2.19 µM.

On to BICR31 (head and neck, adherent), for which the results for the AUC with YM201636, with EX-527 and with AS601245 were 0.979, 0.98 and 0.921, respectively. Besides, the figures for the IC50 with YM201636, with EX-527 and in the test with AS601245 were greater than 5.12 µM, greater than 20 µM and greater than 8 µM, respectively.

On to CAL-78 (chondrosarcoma, adherent), for which the AUC with YM201636 is 0.954; with EX-527, 0.986; in the test with AS601245, 0.914. For the same cell line, the IC50 with YM201636 was greater than 5.12 µM; in the test with EX-527 it was greater than 20 µM; with AS601245 it was greater than 8 µM.

With CHP-212 (neuroblastoma, adherent), the AUC with YM201636 turned out to be 0.985; with EX-527, 0.985; in the test with AS601245, 0.844. The IC50 was greater than 5.12 µM with YM201636, greater than 20 µM in the test with EX-527 and 5.1 µM in the test with AS601245.

Regarding Caov-3 (ovary, adherent), the AUC with YM201636 came to 0.945; with EX-527 it was 0.98; in the test with AS601245, 0.956. In addition, the IC50 in the test with YM201636 is greater than 5.12 µM; with EX-527, greater than 20 µM; in the test with AS601245, greater than 8 µM.

In the case of Caov-4 (ovary, adherent), the AUC with YM201636 was 0.904; with AZD6244 it was 0.876; with AS601245, 0.888. In addition, the IC50 with YM201636 was greater than 5.12 µM; with AZD6244, greater than 4 µM; with AS601245 it was greater than 8 µM.

Consider FADU (head and neck, adherent), for which the figures for the AUC in the test with YM201636, with EX-527 and with AS601245 were 0.975, 0.984 and 0.956, respectively. Further, the half-maximal inhibitory concentration (IC50) in the test with YM201636 was greater than 5.12 µM; with EX-527 it was greater than 20 µM; with AS601245 it was greater than 8 µM.

With H2804 (mesothelioma, adherent), the AUC with YM201636 amounted to 0.922; with EX-527, 0.986; with AS601245, 0.793. Also, the half-maximal inhibitory concentration (IC50) with YM201636 is greater than 5.12 µM; with EX-527, greater than 20 µM; with AS601245, 4.06 µM.

Regarding HSC-4 (head and neck, adherent), the AUC worked out at 0.979 in the test with YM201636, 0.975 with EX-527 and 0.897 with AS601245. Moreover, the results for the half-inhibitory concentration (IC50) with YM201636, in the test with EX-527 and with AS601245 were greater than 5.12 µM, greater than 20 µM and greater than 8 µM, respectively.
